Reference: PubChem BioAssay AID651820 (National Center for Advancing Translational Sciences (NCATS), 2012)
In all, about 340,000 compounds went through this assay and about 12,000 (3.5%) were called active. Inconclusive means that the source gave no clear call. Such entries were picked first, then a sample of the others. Calls follow the shape of the dose curve; as a rule, active = well fitted inhibition curve with a large enough effect; inconclusive = small, poorly fitted or top-dose-only effect, or another doubt; inactive = no such curve, though single readings can be large or run the other way. Potencies of inconclusive entries are left out as doubtful fits.

Experiment: qHTS Assay for Inhibitors of Hepatitis C Virus (HCV)
Conditions: Huh7.5.1 HCVcc-Cre (HCVcc is cell-culture hepatitis C virus) infection, luciferase reporter, 44 h; activity change, negative = inhibition: at 41.8 µM (top of the series) unless noted
Method in brief: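 1,000 cells/well; 4 h culture; + compound; + HCVcc-Cre (~0.5 moi); 44 h; luciferase substrate, RT 15 min; read 15 sec.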
% is scaled to controls: 0 for no effect and ±100 for the full control effect; potency is read from the fitted curve at half-maximal effect; tags tell the direction and shape of the fitted curve.

With `CCOc1ccc(NC(=O)CSc2nncn2C)cc1` as the compound, how does the “activity change, negative = inhibition” value read?
The value was inactive: 28.2%.

For `CCCC[C@@H](CNC)NC[C@H](Cc1ccc(O)cc1)NCCc1ccc(OCC)cc1`, which Potency is on record?
Its Potency is inconclusive [inhibitor, single point].

With `C[C@H]1CN(S(=O)C(C)(C)C)[C@H](CCO)/C1=C\CCO` (stereo partly specified) as the compound, how does the “activity change, negative = inhibition” value read?
The value was inactive: -19%.

Which Potency does the source give for `COc1cc2nc(N(C)C)nc(N)c2cc1OC` here?
The Potency was inconclusive [inhibitor, single point].

For `O=C(N/N=C/c1c[nH]c2ccccc12)c1ccn[nH]1`, which Potency is on record?
The Potency was inconclusive [inhibitor, single point].

Which Potency does the source give for `O=C(Cn1cc(S(=O)(=O)N2CCN(c3ccccc3F)CC2)c2ccccc2c1=O)NCCCN1CCCCCC1` here?
Its Potency is active: 22.4 µM.

For `CCn1cc2c(c1-c1cccc(C)c1)c(=O)n(C)c(=O)n2C`, which Potency is on record?
The Potency was inconclusive [inhibitor, partial curve, poor fit].

With `COc1cc2c(cc1NC(=S)Nc1ccccc1C)oc1ccccc12` as the compound, how does the Potency read?
Its Potency is inconclusive [inhibitor, single point].

With `O=C(NCCN1C(=O)S/C(=C\c2ccccc2Cl)C1=O)C1=COCCO1` as the compound, how does the Potency read?
The Potency was inconclusive [inhibitor, full curve].

Which Potency does the source give for `CCCCN1C2=C(C(=O)CCC2)C(c2ccc(Cl)c(Cl)c2)C2=C1c1ccccc1C2=O` (stereo unspecified) here?
The Potency was inconclusive [inhibitor, full curve].

For `CC(=O)OC1N=C(c2ccc(Cl)cc2)c2cc(Br)ccc2NC1=O` (stereo unspecified), which Potency is on record?
The Potency was inconclusive [inhibitor, single point].

For `COc1ccc(C(CNC(=O)c2ccc(C)c(S(=O)(=O)N3CCCCC3)c2)N2CCCC2)cc1` (stereo unspecified), which “activity change, negative = inhibition” value is on record?
Its value is inactive: -11.6%.

Which “activity change, negative = inhibition” value does the source give for `COc1ccc2c(c1)C1(Nc3ccccc3-c3nc4ccccc4n31)C(=O)N2` (stereo unspecified) here?
The value was inactive: 11.4%.

Which Potency does the source give for `Cc1ccc(S(=O)(=O)Nc2ccc3nc(-c4cccn4C)[nH]c3c2)cc1` here?
The Potency was active: 11.2 µM.

Which “activity change, negative = inhibition” value does the source give for `COc1ccc(OC(C)C(=O)NCCC2=CCCCC2)cc1` (stereo unspecified) here?
The value was inactive: 3.4%.

Which “activity change, negative = inhibition” value does the source give for `CC(C)CCn1nnnc1CN1CCN(c2ccc(F)cc2)CC1` here?
The value was inactive: 5.08%.

With `COc1cccc(C2c3c(oc4cc(C)c(C)cc4c3=O)C(=O)N2CCCN(C)C)c1` (stereo unspecified) as the compound, how does the “activity change, negative = inhibition” value read?
The value was inactive: -5.21%.

For `CCOc1cc(N2CCOCC2)c(OCC)cc1NC(=O)COC(=O)COc1ccc(C#N)cc1`, which “activity change, negative = inhibition” value is on record?
Its value is inactive: 16.9%.

Which “activity change, negative = inhibition” value does the source give for `CCc1[nH]nc2c1C(c1cccc(OC(=O)N3CCOCC3)c1)C(C#N)=C(N)O2` (stereo unspecified) here?
Its value is inactive: 12.5%.

With `COc1ccc([C@H]2CC(=O)C=C(c3cccc(F)c3OC)C2)cc1` as the compound, how does the Potency read?
The Potency was inconclusive [inhibitor, single point].

Which Potency does the source give for `CC(C)(C)OC(=O)N1CCC(C(=O)Nc2cccc(C(=O)NCCCc3ccccc3)c2)CC1` here?
The Potency was active: 3.98 µM.

With `Cn1nnnc1SCc1nc2scc(-c3ccc(Cl)cc3)c2c(=O)[nH]1` as the compound, how does the Potency read?
Its Potency is inconclusive [inhibitor, partial curve].

Which “activity change, negative = inhibition” value does the source give for `CN(C)/C=C(\C#N)C(=O)N/N=C(\CC(=O)C(F)(F)F)c1ccco1` here?
Its value is inactive: 33%.

Which Potency does the source give for `Cc1nc(N2CCN(C(=O)COc3ccccc3)CC2)c2c(C)c(C)sc2n1` here?
Its Potency is active: 12.6 µM.

With `Cc1ccc(N(C(=O)CCC(=O)Nc2nccs2)C(C(=O)NC(C)(C)C)c2ccc(O)cc2)cc1` (stereo unspecified) as the compound, how does the “activity change, negative = inhibition” value read?
The value was inactive: -15.4%.

For `O=C(Nc1cccc(S(=O)(=O)N2CCCCCC2)c1)c1ccc(Cl)nc1`, which Potency is on record?
Its Potency is inconclusive [inhibitor, single point].

With `COc1cccc(C(C(=O)NC2CCCCC2)N(CCN2CCOCC2)C(=O)C2COc3ccccc3O2)c1` (stereo unspecified) as the compound, how does the “activity change, negative = inhibition” value read?
The value was inactive: 4.64%.

Which Potency does the source give for `Cc1cc(C)c(C#N)c(SCS(=O)Cc2ccc(Cl)cc2)n1` (stereo unspecified) here?
Its Potency is active: 11.2 µM.

Which Potency does the source give for `C=CCn1c(=O)c(C(=O)NCc2ccccc2Cl)c(O)c2ccccc21` here?
Its Potency is inconclusive [inhibitor, partial curve].

For `CC(NC(=O)C1=CC=CN2CCS(=O)(=O)N=C12)c1ccc(Cl)cc1Cl` (stereo unspecified), which “activity change, negative = inhibition” value is on record?
Its value is inactive: 4.49%.

For `Cc1nc(NC(=O)c2cccc(-c3cc4ccccc4oc3=O)c2)ccc1Br`, which Potency is on record?
Its Potency is inconclusive [inhibitor, single point].

Which Potency does the source give for `O=S1(=O)[C@H]2C[C@H](CO)O[C@@]2(CO)CN1Cc1ccc(-c2ccc(F)cc2)cc1` here?
The Potency was active: 11.2 µM.

Which Potency does the source give for `Brc1ccc(N=C/C=C/C=C/Nc2ccc(Br)cc2)cc1` here?
The Potency was inconclusive [inhibitor, single point].

With `O=C(CSc1nnc(CNC(=O)c2ccc(F)cc2)o1)NCc1ccc(F)cc1` as the compound, how does the Potency read?
The Potency was inconclusive [inhibitor, single point].

For `CC(C)C1O/C(=N/C(=O)Nc2ccc(Cl)c(Cl)c2)NC1=O` (stereo unspecified), which Potency is on record?
The Potency was inconclusive [inhibitor, single point].

Which Potency does the source give for `Cc1ccc(OCC(O)Cn2c(=N)n(Cc3ccccc3)c3ccccc32)cc1` (stereo unspecified) here?
Its Potency is inconclusive [inhibitor, single point].

Which “activity change, negative = inhibition” value does the source give for `O=C(COC(=O)[C@H](Cc1ccccc1)NC(=O)c1cccs1)NC1CCCCC1` here?
Its value is inactive: 9.17%.

For `CC(NC(=O)CN1CCN(CC(=O)Nc2ccccc2Cl)CC1)c1ccc(Br)cc1` (stereo unspecified), which Potency is on record?
The Potency was inconclusive [inhibitor, partial curve].

With `CCCCC(CC)C(=O)Nc1ccc(Nc2ccccc2)cc1` (stereo unspecified) as the compound, how does the Potency read?
The Potency was inconclusive [inhibitor, single point].

Which Potency does the source give for `CCOC(=O)c1c(NC(=O)c2ccc(N3C(=O)[C@@H]4[C@H](C3=O)[C@H]3C=C[C@@H]4C3)cc2)sc2c1CCCC2` here?
Its Potency is inconclusive [inhibitor, full curve].

With `CC(C)(C)NC(=O)CSc1nc(Cc2ccccc2)nc2ccccc12` as the compound, how does the Potency read?
The Potency was active: 12.6 µM.

Which Potency does the source give for `COc1ccc(-c2c(-c3cc(OC)cc(OC)c3)n(C)c3ccc(-c4cc(F)cc(OC)c4)cc23)cc1` here?
The Potency was inconclusive [inhibitor, single point].

For `Cc1nc2ccc(N)cc2s1`, which Potency is on record?
Its Potency is inconclusive [inhibitor, single point].

Which “activity change, negative = inhibition” value does the source give for `CCOC(=O)N1CCC(n2c(=S)[nH]c3cc(OCC)c(OCC)cc3c2=O)CC1` here?
Its value is inactive: -28.9%.

Which Potency does the source give for `CC(C)(C)c1cc(/C=N/NC(=O)C[n+]2ccccc2)cc(C(C)(C)C)c1O` here?
Its Potency is inconclusive [inhibitor, partial curve].

For `Cc1cc(Br)ccc1OCCCCN1CCCCC1`, which Potency is on record?
Its Potency is active: 10 µM.
